PMC4336329 (PLoS ONE, 2015)
About 2,200 (0.71%) of roughly 310,000 compounds showed an effect of 50% or more. The effect is printed as a negative number. The list shows a part of the results.

Target: human ether-à-go-go-related gene (hERG) potassium channel (human, UniProt Q12809)
Test: primary screen, population patch clamp on CHO cells stably expressing hERG

Chain of human ether-à-go-go-related gene (hERG) potassium channel (Q12809 whole entry, looked up): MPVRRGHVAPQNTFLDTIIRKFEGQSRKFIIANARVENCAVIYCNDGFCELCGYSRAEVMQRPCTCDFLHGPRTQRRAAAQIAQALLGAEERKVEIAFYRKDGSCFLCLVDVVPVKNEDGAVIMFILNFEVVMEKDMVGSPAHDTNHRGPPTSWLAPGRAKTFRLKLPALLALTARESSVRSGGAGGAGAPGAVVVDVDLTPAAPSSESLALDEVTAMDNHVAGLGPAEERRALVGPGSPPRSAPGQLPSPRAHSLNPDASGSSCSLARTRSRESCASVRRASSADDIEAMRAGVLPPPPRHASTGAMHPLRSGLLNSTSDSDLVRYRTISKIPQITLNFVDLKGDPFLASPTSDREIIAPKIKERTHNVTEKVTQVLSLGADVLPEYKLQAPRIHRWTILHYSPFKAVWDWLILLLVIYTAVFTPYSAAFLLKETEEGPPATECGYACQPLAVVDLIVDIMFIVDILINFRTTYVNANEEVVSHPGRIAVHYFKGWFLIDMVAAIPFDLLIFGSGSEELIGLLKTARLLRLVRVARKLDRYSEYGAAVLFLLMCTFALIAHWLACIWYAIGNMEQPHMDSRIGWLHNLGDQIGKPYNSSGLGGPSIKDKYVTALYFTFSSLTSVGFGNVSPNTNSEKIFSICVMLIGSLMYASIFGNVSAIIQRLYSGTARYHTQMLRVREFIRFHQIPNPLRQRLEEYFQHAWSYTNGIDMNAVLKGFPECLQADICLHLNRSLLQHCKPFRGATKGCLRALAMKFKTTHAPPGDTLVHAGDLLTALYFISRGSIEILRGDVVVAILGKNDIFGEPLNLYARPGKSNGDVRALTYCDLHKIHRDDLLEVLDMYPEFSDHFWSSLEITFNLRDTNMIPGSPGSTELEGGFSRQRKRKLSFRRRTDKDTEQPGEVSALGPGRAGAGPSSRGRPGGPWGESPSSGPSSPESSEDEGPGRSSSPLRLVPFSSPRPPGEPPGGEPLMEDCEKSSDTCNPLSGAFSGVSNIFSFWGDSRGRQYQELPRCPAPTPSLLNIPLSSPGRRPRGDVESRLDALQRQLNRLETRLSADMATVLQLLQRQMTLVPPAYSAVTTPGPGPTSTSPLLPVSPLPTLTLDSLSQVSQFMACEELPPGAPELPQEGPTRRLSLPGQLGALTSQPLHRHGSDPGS

Compound	hERG current change (%, negative = inhibition) at 1uM [%]
O=C(O)C1CCCC[C@H]1C(=O)Nc1ncc([N+](=O)[O-])s1 (stereo partly drawn)	9.02
Cc1cccnc1Nc1nc(-c2ccc(O)cc2)cs1	0.894
CCN(CC(=O)NCc1ccc(F)cc1)C(=O)c1ccc(C)o1	12.4
CN1c2ccccc2Oc2nnc(N3CCN(Cc4ccccc4)CC3)cc21	-46.6
CC1=C[C@H]2OC(=O)[C@@H](C)[C@H]2C[C@@H]2[C@H]1C[C@@H](O)[C@@]2(C)O	5.41
COc1cccc(CC(=O)N2CCC(CCC(=O)Nc3cccc(OC)c3)CC2)c1	-0.988
Cc1c(NC(=O)COC(=O)c2cc(-c3ccc(-c4ccccc4)cc3)nc3ccccc23)c(=O)n(-c2ccccc2)n1C	15.3
COc1ccc(CC(=O)N(c2ccccc2)c2nc(C)cs2)cc1	1.42
COC(=O)c1cc2sccc2n1Cc1ccc(C)cc1	16.4
COc1ccc(-c2nc(SCC(=O)NCc3ccco3)c(-c3ccccc3)[nH]2)cc1OC	4.9
CCN(C(=O)COC(=O)c1ccc(C)c(S(=O)(=O)N2CCCCC2)c1)C1CCS(=O)(=O)C1 (stereo not drawn)	-20
CCOC(=O)c1nnn(CC(=O)Nc2ccccc2OC)c1C(=O)OCC	11.5
CCC(C)C(NC(=O)OCc1ccccc1)C(=O)NCC(c1ccccc1)N(C)C (stereo not drawn)	8.15
CC(=O)N1CCN(c2ccc([N+](=O)[O-])cc2C#N)CC1	-47.9
CN(C)C(=O)NC(O)C(Cl)Cl (stereo not drawn)	1.65
CC(NC(=O)c1ccco1)C(=O)N(C)Cc1ccc(C(F)(F)F)cc1 (stereo not drawn)	16
CC(C)CC(=O)Nc1cccc(-c2nc3ncccc3o2)c1	2.55
CCn1cc(/C=N/NS(=O)(=O)c2ccc(C)cc2)c(C)n1	4.79
CCO[C@H]1OC(C(=O)N2CCCCCCC2)=C[C@@H](C)[C@@H]1CCCO	12.9

Compound	hERG current change (%, negative = inhibition) at 1uM [%]
CCCn1c(SCC(=O)N2CCN(S(=O)(=O)c3ccc(Cl)cc3)CC2)n[nH]c1=O	12.7
CC1CC(C)CN(C(=O)CCCNC(=O)c2ccc(Cl)cc2)C1 (stereo not drawn)	-1.14
Cc1ccc(NC(=S)N2CCC(NC(=O)c3ccccc3)CC2)cc1	-4.03
CCN(CC)CCn1c(NS(=O)(=O)c2ccc(Cl)cc2)nc2ccccc21.Cl	-69
O=c1c2ccccc2nc(-c2ccoc2)n1-c1ccccc1	7.97
Cc1ccc(C)c2c1cc(C)c1nnc(SCC(=O)Nc3cccc(C(=O)O)c3)n12	11.2
Cc1cc(C)nc(NS(=O)(=O)c2ccc(N3C(=O)C4CCCCC4C3=O)cc2)n1 (stereo not drawn)	8.84
CCCCCCSc1nsc(N)n1	4.28
COc1ccc(S(=O)(=O)N2CCCCC2)cc1NC(=O)CSc1nccn1C	11.7
CC(Nc1ccc(Cl)cc1)C(=O)NN (stereo not drawn)	15.6
CCCCCCNCCn1cnc2c(N)ncnc21	-9.13
CNc1oc(-c2ccc(Cl)cc2)nc1C#N	-1.41
CN(Cc1ccccc1F)C(=O)c1ccc(NS(=O)(=O)c2ccc3[nH]c(=O)[nH]c3c2)cc1	10.8
OC[C@H]1O[C@H](OCc2ccccc2)[C@H](O[C@@H]2OC[C@@H](O)[C@H](O)[C@H]2O)[C@@H](O)[C@@H]1O	15.9
COc1ccc(NC(=O)C23CCC(C)(C(=O)C2)C3(C)C)cc1 (stereo not drawn)	9.9
Cc1cc(C(=O)Nc2ccc(CC(=O)O)cc2)c(C)o1	14.6
CCC(c1nnc(SCC(=O)N(C)c2ccccc2)n1Cc1ccccc1)N(C)C (stereo not drawn)	13
CCN(CC)S(=O)(=O)c1cc(C)ccc1NC(=S)Nc1cccnc1	3.41
Cc1ccc(C=C2C(=O)c3ccccc3C2=O)o1	7.94

Compound	hERG current change (%, negative = inhibition) at 1uM [%]
CC(C)(C)c1csc(NC(=O)c2cccnc2)n1	19.5
COc1ccc(/C=C/C(=O)NCC(=O)N/N=C(/C)c2ccc(Cl)cc2)cc1	14.5
COc1ccc(S(=O)(=O)N(CCc2ccccc2)CC(=O)O)cc1	11
Cc1ccc(C(=O)NCCc2nnc3ccc(SCC(=O)NCc4ccc(F)cc4)nn23)cc1	7.81
O=C(Nc1cccc(F)c1)N1C2CCC1CC(O)(c1cccnc1)C2 (stereo not drawn)	19.1
CCO[C@H]1OC(C(=O)NCc2nc3ccccc3[nH]2)=C[C@@H](c2csc3ccccc23)[C@@H]1CCCO	7.88
COc1ccc(C(=O)NCc2nnc(SC)n2Cc2ccccc2)cc1	2.88
COc1ccc(OC)c(C(C(=O)NC2CCCCC2)N(Cc2ccco2)C(=O)c2ccccn2)c1 (stereo not drawn)	11
C=CCn1c(=S)[nH]c2ccccc2c1=O	9.51
Cc1c(NC(=S)NC(=O)CSc2ccc(Cl)cc2)cccc1C(=O)O	1.51
Cc1ccccc1CN1C[C@@H]2C[C@@H](c3cn[nH]c3-c3ccc(F)cc3)N3CCC[C@@]23C1=O	-12.9
CNC(=O)c1cc2c(-c3ccccc3)nn(C)c2s1	10.9
CCCCNC(=O)CN1C(=O)NC(Cc2ccccc2)(Cc2ccccc2)C1=O	11
CNC(=S)NC12CC3CC(CC(C3)C1)C2	13.3
c1ccc2oc(NC3=NCN(C4CCCCC4)CN3)nc2c1	16.5
CCN1CCN(c2nc3c(C)cccn3c(=O)c2C=C(C#N)C#N)CC1	-0.0089
CCC(C)[C@H](NC(=O)N1CCCC1)C(=O)O (stereo partly drawn)	12.9
O=C1C=C(c2cc3ccccc3s2)CCC1	1.19
CCN(CC)CCCn1c(C)cc2c(c1=O)C(c1cc(OC)c(OC)cc1OC)C(C#N)=C(N)O2 (stereo not drawn)	1.91
